# According to the supplement of paper PMC4604168 (melanoma cell lines):
# The list shows a part of the results. Repeats are few or missing, and single values can be far off.
# System: MZ2-MEL
# Test: cell count relative to DMSO control; melanoma cells; higher = more viable cells
# Conditions: library dose: low library concentration; 72 h
# 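Note: cell number obtained by counting DAPI-stained nuclei in high-throughput microscope images with image analysis software, screen run in 1,536-well plates.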
row,SMILES,cell count
1,"COc1cc([C@@H]2c3cc4c(cc3[C@@H](O[C@@H]3O[C@@H]5CO[C@@H](C)O[C@H]5[C@H](O)[C@H]3O)[C@H]3COC(=O)[C@H]23)OCO4)cc(OC)c1O [etoposide] + CN(NC(=O)CC(=O)NN(C)C(=S)c1ccccc1)C(=S)c1ccccc1 [STA4783] (first compound 0.02 µM, partner dose 0.006 µM)",90.6%
2,"C[C@]1(O)C[C@@H](c2nc(-c3ccc4ccc(-c5ccccc5)nc4c3)c3c(N)nccn32)C1 + Cc1cc([N+](=O)[O-])ccc1NS(=O)(=O)c1cc(Cl)ccc1Cl [FH535] (first compound 0.4 µM, partner dose 1 µM)",95.2%
3,"CCN(CC)CCNC(=O)c1c(C)[nH]c(/C=C2\C(=O)Nc3ccc(F)cc32)c1C [sunitinib] + COC(=O)c1sccc1S(=O)(=O)Nc1ccc(Nc2ccccc2)cc1OC [GSK0660] (first compound 0.4 µM, partner dose 1 µM)",98.1%
4,"Cn1cnc2c(F)c(Nc3ccc(Br)cc3Cl)c(C(=O)NOCCO)cc21 [selumetinib] + COc1cc2c(Oc3ccc4[nH]c(C)cc4c3F)ncnc2cc1OCCCN1CCCC1 [cediranib] (first compound 0.015 µM, partner dose 0.4 µM)",80.6%
5,"Cn1cnc2c(F)c(Nc3ccc(Br)cc3Cl)c(C(=O)NOCCO)cc21 [selumetinib] + COc1cc2ncnc(Nc3ccc(Oc4ccccc4)cc3)c2cc1OC [SrcI1] (first compound 0.015 µM, partner dose 2 µM)",98.6%
6,"Cn1cnc2c(F)c(Nc3ccc(Br)cc3Cl)c(C(=O)NOCCO)cc21 [selumetinib] + NC(=O)Nc1cc(-c2cccc(F)c2)sc1C(=O)N[C@H]1CCCNC1 [AZD7762] (first compound 0.015 µM, partner dose 0.02 µM)",91%
7,"COc1cc([C@@H]2c3cc4c(cc3[C@@H](O[C@@H]3O[C@@H]5CO[C@@H](C)O[C@H]5[C@H](O)[C@H]3O)[C@H]3COC(=O)[C@H]23)OCO4)cc(OC)c1O [etoposide] + Cn1cncc1[C@@](N)(c1ccc(Cl)cc1)c1ccc2c(c1)c(-c1cccc(Cl)c1)cc(=O)n2C [tipifarnib] (first compound 0.02 µM, partner dose 0.01 µM)",88.3%
8,"CCN(CC)CCNC(=O)c1c(C)[nH]c(/C=C2\C(=O)Nc3ccc(F)cc32)c1C [sunitinib] + O=C(CCCCCCC(=O)Nc1ccccc1)NO [vorinostat] (first compound 0.4 µM, partner dose 0.08 µM)",113%
9,"COc1cc([C@@H]2c3cc4c(cc3[C@@H](O[C@@H]3O[C@@H]5CO[C@@H](C)O[C@H]5[C@H](O)[C@H]3O)[C@H]3COC(=O)[C@H]23)OCO4)cc(OC)c1O [etoposide] + Cc1cc([N+](=O)[O-])ccc1NS(=O)(=O)c1cc(Cl)ccc1Cl [FH535] (first compound 0.02 µM, partner dose 1 µM)",98.9%

# System: MeWo
# Test: as above
# Conditions: library dose: low library concentration; 72 h
row,SMILES,cell count
1,"C[C@]1(O)C[C@@H](c2nc(-c3ccc4ccc(-c5ccccc5)nc4c3)c3c(N)nccn32)C1 + CN(NC(=O)CC(=O)NN(C)C(=S)c1ccccc1)C(=S)c1ccccc1 [STA4783] (first compound 0.4 µM, partner dose 0.006 µM)",87.4%
2,"C[C@]1(O)C[C@@H](c2nc(-c3ccc4ccc(-c5ccccc5)nc4c3)c3c(N)nccn32)C1 + NCC(=O)Nc1ccc(-n2nc(C(F)(F)F)cc2-c2ccc3c(ccc4ccccc43)c2)cc1 [OSU03012] (first compound 0.4 µM, partner dose 1 µM)",64.7%
3,"CCN(CC)CCNC(=O)c1c(C)[nH]c(/C=C2\C(=O)Nc3ccc(F)cc32)c1C [sunitinib] + Oc1nc(-c2ccc(C(F)(F)F)cc2)nc2c1CSCC2 [XAV939] (first compound 0.4 µM, partner dose 2 µM)",85.9%
4,"C[C@]1(O)C[C@@H](c2nc(-c3ccc4ccc(-c5ccccc5)nc4c3)c3c(N)nccn32)C1 + CC(C)CCN1c2nc(Nc3cc(F)c(O)c(F)c3)ncc2N(C)C(=O)C1C [BID1870] (first compound 0.4 µM, partner dose 0.2 µM)",90.2%
5,"CCN(CC)CCNC(=O)c1c(C)[nH]c(/C=C2\C(=O)Nc3ccc(F)cc32)c1C [sunitinib] + COc1cc(N2CCC(N3CCN(C)CC3)CC2)ccc1Nc1ncc(Cl)c(Nc2ccccc2S(=O)(=O)C(C)C)n1 [NVP-TAE684] (first compound 0.4 µM, partner dose 0.08 µM)",81%
6,"CCN(CC)CCNC(=O)c1c(C)[nH]c(/C=C2\C(=O)Nc3ccc(F)cc32)c1C [sunitinib] + CCc1ccc(CCOc2ccc(CC3SC(=O)NC3=O)cc2)nc1 [pioglitazone] (first compound 0.4 µM, partner dose 2 µM)",83%
7,"C[C@]1(O)C[C@@H](c2nc(-c3ccc4ccc(-c5ccccc5)nc4c3)c3c(N)nccn32)C1 + NC(=O)Nc1cc(-c2cccc(F)c2)sc1C(=O)N[C@H]1CCCNC1 [AZD7762] (first compound 0.4 µM, partner dose 0.02 µM)",97.3%
8,"C[C@]1(O)C[C@@H](c2nc(-c3ccc4ccc(-c5ccccc5)nc4c3)c3c(N)nccn32)C1 + c1cc(-c2cnn3cc(-c4ccc(OCCN5CCCCC5)cc4)cnc23)ccn1 [Dorsomorphin] (first compound 0.4 µM, partner dose 0.4 µM)",91.9%
9,"COc1cc([C@@H]2c3cc4c(cc3[C@@H](O[C@@H]3O[C@@H]5CO[C@@H](C)O[C@H]5[C@H](O)[C@H]3O)[C@H]3COC(=O)[C@H]23)OCO4)cc(OC)c1O [etoposide] + COc1cc(N2CCC(N3CCN(C)CC3)CC2)ccc1Nc1ncc(Cl)c(Nc2ccccc2S(=O)(=O)C(C)C)n1 [NVP-TAE684] (first compound 0.02 µM, partner dose 0.08 µM)",89.1%
10,"CCN(CC)CCNC(=O)c1c(C)[nH]c(/C=C2\C(=O)Nc3ccc(F)cc32)c1C [sunitinib] + CCCCCCCCCCCC1=C(O)C(=O)C=C(O)C1=O [Embelin] (first compound 0.4 µM, partner dose 1.2 µM)",86.6%
11,"Cn1cnc2c(F)c(Nc3ccc(Br)cc3Cl)c(C(=O)NOCCO)cc21 [selumetinib] + CO[C@@H]1[C@H](N(C)C(=O)c2ccccc2)C[C@H]2O[C@]1(C)n1c3ccccc3c3c4c(c5c6ccccc6n2c5c31)C(=O)NC4 [Midostaurin] (first compound 0.015 µM, partner dose 0.08 µM)",75.5%
12,"COc1cc([C@@H]2c3cc4c(cc3[C@@H](O[C@@H]3O[C@@H]5CO[C@@H](C)O[C@H]5[C@H](O)[C@H]3O)[C@H]3COC(=O)[C@H]23)OCO4)cc(OC)c1O [etoposide] + NC(=O)Nc1cc(-c2cccc(F)c2)sc1C(=O)N[C@H]1CCCNC1 [AZD7762] (first compound 0.02 µM, partner dose 0.02 µM)",87.9%
13,"Cn1cnc2c(F)c(Nc3ccc(Br)cc3Cl)c(C(=O)NOCCO)cc21 [selumetinib] + Oc1nc(-c2ccc(C(F)(F)F)cc2)nc2c1CSCC2 [XAV939] (first compound 0.015 µM, partner dose 2 µM)",95.1%
14,"CCN(CC)CCNC(=O)c1c(C)[nH]c(/C=C2\C(=O)Nc3ccc(F)cc32)c1C [sunitinib] + NC(=O)Nc1cc(-c2cccc(F)c2)sc1C(=O)N[C@H]1CCCNC1 [AZD7762] (first compound 0.4 µM, partner dose 0.02 µM)",80.7%
15,"C[C@]1(O)C[C@@H](c2nc(-c3ccc4ccc(-c5ccccc5)nc4c3)c3c(N)nccn32)C1 + O=S(=O)(c1ccccc1)N(CC(F)(F)F)c1ccc(C(O)(C(F)(F)F)C(F)(F)F)cc1 [T0901317] (first compound 0.4 µM, partner dose 1.4 µM)",111%
16,"CCN(CC)CCNC(=O)c1c(C)[nH]c(/C=C2\C(=O)Nc3ccc(F)cc32)c1C [sunitinib] + COc1cc(Nc2ncc(F)c(Nc3ccc4c(n3)NC(=O)C(C)(C)O4)n2)cc(OC)c1OC [Tamatinib] (first compound 0.4 µM, partner dose 0.4 µM)",92.4%
17,"C[C@]1(O)C[C@@H](c2nc(-c3ccc4ccc(-c5ccccc5)nc4c3)c3c(N)nccn32)C1 + COc1cc2c(Oc3ccc4[nH]c(C)cc4c3F)ncnc2cc1OCCCN1CCCC1 [cediranib] (first compound 0.4 µM, partner dose 0.4 µM)",100%
18,"C[C@]1(O)C[C@@H](c2nc(-c3ccc4ccc(-c5ccccc5)nc4c3)c3c(N)nccn32)C1 + COc1cc2ncnc(Nc3ccc(Oc4ccccc4)cc3)c2cc1OC [SrcI1] (first compound 0.4 µM, partner dose 2 µM)",91.8%
19,"CCN(CC)CCNC(=O)c1c(C)[nH]c(/C=C2\C(=O)Nc3ccc(F)cc32)c1C [sunitinib] + OCCn1cc(-c2cnc3nnn(Cc4ccc5ncccc5c4)c3n2)cn1 [PF04217903] (first compound 0.4 µM, partner dose 1 µM)",88.3%
20,"Cn1cnc2c(F)c(Nc3ccc(Br)cc3Cl)c(C(=O)NOCCO)cc21 [selumetinib] + N#Cc1c(O)c2c(-c3ccc(-c4ccccc4O)cc3)csc2[nH]c1=O [A769662] (first compound 0.015 µM, partner dose 2 µM)",96.2%
